Assay results reported in PMC6168566, “Bridging of membrane surfaces by annexin A2” (Scientific Reports, 2018).

Target: the molecule itself
Test: SDS-PAGE under non-reducing conditions; purified AnxA2 derivatives kept under oxidizing (non-reducing) conditions (WT: oxidation state after 1 and 5 weeks); disulfide-linked dimer against monomer

B1: annexin A2 (AnxA2), monomeric wild-type (WT), recombinant, carrying A66E (natural protein)
chain: not shown
modifications: starting methionine removed; the serine that follows it is N-terminally acetylated; under oxidizing conditions a disulfide through Cys-9 to a second AnxA2
notes: annexin A2, human; authentic, non-tagged protein; starting methionine removed and following serine acetylated; measured monoisotopic mass 38548.7867 Da; A66E was introduced for antibody detection; The mass fits the whole acetylated protein without the starting methionine; also called WT AnxA2; non-alkylated AnxA2; source: E. coli DH5α, purified (diethylaminoethyl- and carboxymethyl-cellulose ion …)
  stoichiometry N: 2
